The campaign covered roughly 45,000 compounds. About 65 (0.1%) were called active. Calls follow the shape of the dose curve; as a rule, active = well fitted activation curve with a large enough effect; inconclusive = small, poorly fitted or top-dose-only effect; inactive = no such curve, though single readings can be large or run the other way. This is one part of the list.

Sequence of UniProt P54803 (P54803 whole entry, looked up): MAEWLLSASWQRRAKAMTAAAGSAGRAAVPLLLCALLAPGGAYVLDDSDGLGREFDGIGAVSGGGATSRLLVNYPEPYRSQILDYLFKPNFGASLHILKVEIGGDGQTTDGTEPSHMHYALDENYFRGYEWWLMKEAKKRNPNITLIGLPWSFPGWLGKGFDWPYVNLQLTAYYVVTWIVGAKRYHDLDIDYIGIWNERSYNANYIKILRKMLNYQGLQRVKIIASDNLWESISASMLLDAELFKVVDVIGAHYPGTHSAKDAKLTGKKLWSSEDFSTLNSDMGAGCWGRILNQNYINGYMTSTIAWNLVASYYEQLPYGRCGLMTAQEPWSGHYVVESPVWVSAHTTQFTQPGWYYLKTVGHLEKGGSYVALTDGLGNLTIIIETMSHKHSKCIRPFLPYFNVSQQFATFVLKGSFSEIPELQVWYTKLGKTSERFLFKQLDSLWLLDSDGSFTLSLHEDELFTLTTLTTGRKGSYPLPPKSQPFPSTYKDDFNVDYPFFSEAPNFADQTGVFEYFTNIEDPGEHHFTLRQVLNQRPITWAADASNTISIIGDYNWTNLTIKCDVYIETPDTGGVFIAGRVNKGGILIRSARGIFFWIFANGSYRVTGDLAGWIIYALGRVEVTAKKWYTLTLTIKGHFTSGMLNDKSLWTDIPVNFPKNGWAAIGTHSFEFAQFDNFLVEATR

The assay deals with Galactocerebrosidase (Homo sapiens) (UniProt P54803). Briefly: A Novel Cell-Based Assay to Identify Small Molecules for B -Galactocerebrosidase. Also: 0% is about no effect; nearly all actives have a fitted effect of over 65% in size. The following applies: 145M-Twi-hGALC-G270D cells (Twitcher mouse brain line with human GALC G270D), HMU-beta-Gal fluorescence, 48 h; series mostly up to 57.5 µM; activation: at the top concentration. In short, it runs like this:
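Fluorescence readout: HMU-β-gal cleavage by mutant GALC (0.1 mM final, citrate/phosphate pH 5.2 with 1 mg/mL taurocholate), stopped with carbonate/bicarbonate plus Triton X-100. Cells: murine Twitcher 145M-Twi expressing human G270D GALC; qHTS for activators.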
For the compound `CCCCN(CC)C(=O)CSc1nc2c(sc3ccccc32)c(=O)n1CCc1ccccc1`, the “activation” value was inactive: 0.273%.
With `CN(C)C(=O)c1ccc(S(=O)(=O)NCc2ccc(Cl)cc2)s1` the figure was inactive: -8.39%.
Turning to `COc1ccc(C(=O)NCc2cn3ccc(C)cc3n2)cc1`, the “activation” value is inactive: -8.25%.
As for `Cc1c(C(=O)Nc2c(F)cccc2F)sc2ncn(Cc3ccccc3F)c(=O)c12`, the “activation” value was inactive: -8.52%.
With `Cc1ccc(S(=O)(=O)c2nc(-c3cccs3)oc2N2CCC(C)CC2)cc1`, the “activation” value was inactive: -18.1%.
Regarding `Cn1c(=O)sc2cc(NS(=O)(=O)c3ccc(C(C)(C)C)cc3)ccc21`, the “activation” value was inactive: -16.8%.
Next, `CC(=O)N1CCc2c(sc3c2c(=O)n(-c2ccccc2C)c(=O)n3CC(=O)Nc2ccccc2)C1`: inactive: -15.3%; `CCC1CN(S(=O)(=O)c2cc(-c3cc(C)no3)ccc2OC)c2cc(Cl)ccc2O1` (stereo unspecified): inactive: -9.16%; `O=C1CN(C(=O)c2ccc(S(=O)(=O)N3CCCC3)cc2)C(c2ccc(F)cc2)c2cc(Br)ccc2N1` (stereo unspecified): inactive: -3.57%.
As to `COC(=O)c1ccccc1NC(=O)NCc1ccc2c(c1)CCN2C(=O)c1ccccc1`, the “activation” value is inactive: -11.3%.
With `O=S(=O)(NCCc1csc2nc(-c3ccc(Cl)cc3)nn12)c1cccs1`, the “activation” value is inactive: -0.544%.
Turning to `Cc1ccc2c(c1)N(C(=O)N1CCC(C(=O)Nc3cccc(F)c3)CC1)CCO2`, the “activation” value was inactive: -5.73%.
With `CC(C)CC(=O)NC1CC(=O)N(c2ccc3c(c2)OCCO3)C1` (stereo unspecified) the figure was inactive: -10.6%; with `CCCCNC(=O)CSc1nc2cc3c(cc2c(=O)n1CCCC(=O)NCc1ccc(OC)cc1)OCO3`, inactive: -6.75%.
`CN(Cc1ccccc1)c1nc2c(S(=O)(=O)c3cccc(Cl)c3)nnn2c2ccsc12`: the “activation” value is inactive: -20.2%.
Next, `Cc1ccc2c(c1)N(C(=O)CCC(=O)NCc1ccccc1F)CC(C)O2` (stereo unspecified): inactive: -17.5%; `O=C(COc1ccc(Cl)cc1)OCc1cc(=O)n2nc(C3CCCCC3)sc2n1`: inactive: -15.7%.
As to `Cc1cc(C)cc(NC(=O)[C@H]2O[C@@H]3OC(C)(C)O[C@@H]3[C@H]3OC(C)(C)O[C@H]32)c1`, the “activation” value is inactive: -9.2%.
Next, `CCOC(=O)c1ccc2c(c1)N(Cc1cc(C)ccc1C)C(=O)c1ccccc1S2(=O)=O`: inactive: -2.7%; `CCc1ccccc1NC(=O)CN(c1cc(C(F)(F)F)ccc1Cl)S(=O)(=O)c1ccccc1`: inactive: -5.63%; `O=c1c2oc3ccccc3c2n(Cc2ccccc2Cl)c(=O)n1Cc1ccc2c(c1)OCO2`: inactive: 7.26%.
Turning to `COc1cc(Nc2nc3c(S(=O)(=O)c4ccccc4)nnn3c3ccc(Cl)cc23)cc(OC)c1`, the “activation” value is inactive: 4.87%.
For the compound `COc1ccccc1Nc1cc(C(=O)NCCCN(C)C2CCCCC2)c2ccccc2n1`, the “activation” value is inactive: 1.47%.
Next, `Cc1ccsc1CN(Cc1ccco1)c1cnc(S(C)(=O)=O)nc1C(=O)Nc1ccc(Cl)cc1`: inactive: -11.1%; `Cn1c(=O)oc2cc(S(=O)(=O)CCC(=O)NCc3ccc(Cl)cc3)ccc21`: inactive: -18%.
Next, `Clc1cccc(Nc2ncnc3c2nc2n3CCCCC2)c1`: inactive: -22.6%; `Cc1ccccc1C(=O)N1CCC(c2nc(-c3ccc(S(=O)(=O)N4CCCC4)cc3)no2)CC1`: inactive: -0.866%; `Cc1ccc(NS(=O)(=O)c2ccc(-n3cccn3)cc2)c(Br)c1`: inactive: -14.5%.
Next, `Cc1cccc(C(=O)Nc2ccc(OCc3cc(=O)n4ccc(C)cc4n3)cc2)c1`: inactive: 0.519%; `COc1ccc(Nc2nc3ccccc3n3c(N)nnc23)cc1`: inactive: -8.99%; `COc1ccc(-c2cn3nc(SCC(=O)Nc4cccc(C)c4C)ccc3n2)cc1`: inactive: -23.9%.
For the compound `CCOCCn1ccc2c(OCC(=O)Nc3cc(C)cc(C)c3)cccc2c1=O`, the “activation” value is inactive: -18.3%.
For `Cc1ccc(NC(=O)N2CC=C(c3c[nH]c4ccccc34)CC2)cc1Cl`, the “activation” value was inactive: -14.5%.
Next, `CC1CCN(C(=O)CN2CC(C)Sc3ccccc32)CC1` (stereo unspecified): inactive: -9.69%; `Cc1cccc(N2CCn3c2nc2c3c(=O)n(CCCc3ccccc3)c(=O)n2C)c1`: inactive: 8.33%.
Consider `COc1cc2c(C(=O)N(C)c3cccc(C(F)(F)F)c3)cn(CC(C)C)c(=O)c2cc1OC`, for which the “activation” value is inactive: -16%.
As to `Cc1oc(-c2cccc(Cl)c2)nc1Cn1c(SCc2ccc(F)cc2)nc2cccnc21`, the “activation” value is inactive: 0.356%.
Next, `Cc1ccc(C(c2sc3nc(-c4ccco4)nn3c2O)N2CCN(c3ccc(F)cc3)CC2)cc1` (stereo unspecified): inactive: -1.94%; `CCCCN(C)C(=O)CCC(=O)NNc1nc2ccccc2c2nc(C)nn12`: inactive: 2.44%.
Next, `CCC(Nc1ccc(-c2nc(-c3ccccn3)no2)cc1[N+](=O)[O-])c1ccccc1` (stereo unspecified): inactive: -20.9%; `COc1cc2c(cc1OC)C(COc1cc(C)cc(C)c1)N(C(=O)C(C)(C)C)CC2` (stereo unspecified): inactive: -18.5%; `CCc1ccc(S(=O)(=O)c2nnn3c2nc(N(CC)Cc2ccccc2)c2cc(Cl)ccc23)cc1`: inactive: -12.8%.
Consider `Cc1cc2n(n1)CCCN2C(=O)Nc1ccccc1C(F)(F)F`, for which the “activation” value was inactive: -10.8%.
With `O=C(CCCCCn1c(=O)c2sccc2n(CC(=O)Nc2ccccc2F)c1=O)NCc1ccc2c(c1)OCO2` the figure was inactive: -23.4%; with `CCC(C)OC(=O)/C(C#N)=C/c1ccc(-c2ccc(Br)cc2)o1` (stereo unspecified), inactive: -16.8%.
`Cc1ccc(C2CC(=O)Nc3c2c(C)nn3-c2nc(C)cc(C)n2)c(C)c1` (stereo unspecified): the “activation” value was inactive: -12.2%.
For the compound `COc1cc(CN(C(=O)COc2ccccc2)c2ccccn2)cc(OC)c1OC`, the “activation” value was inactive: -31.7%.
With `CSc1ncc(C(=O)Nc2ccc(C(C)=O)cc2)c(-c2ccccc2)n1` the figure was inactive: -16.1%.
Next, `COc1ccc(NC(=O)c2cn3c4c(ccc(Cl)c4c2=O)OC(C)C3)cc1OC` (stereo unspecified): inactive: -10.5%.
With `COc1ccc(N(Cc2cccs2)C(=O)COc2cc(C)c(Cl)c(C)c2)cc1` the figure was inactive: 6.96%; with `CCOc1ccc2nc(NC(=O)c3cc(=O)c4cc(C)cc(C)c4o3)sc2c1`, inactive: -1.08%; with `COc1ccc(-c2noc(-c3cccc(OC)c3OC)n2)cc1`, inactive: -1.7%.
Take `O=S(=O)(c1ccc2nc(N3CCN(c4ccccc4)CC3)ccc2c1)N1CCCCC1`: the “activation” value was inactive: -8.81%.
With `COc1ccc(Nc2cc(C(=O)NCc3ccccc3)c3ccccc3n2)c(OC)c1` the figure was inactive: -14.7%; with `Cc1cccc(NC(=O)CSc2nc3c(oc4ccccc43)c(=O)n2-c2ccc(F)cc2)c1`, inactive: -8.23%.
`COc1ccc2c(CNCCc3ccccc3)c(C(=O)O)n(Cc3cccc(F)c3)c2c1`: the “activation” value is inactive: -3.01%.
Take `Cc1ccc(NC(=O)CC(C)S(=O)(=O)c2ccc3c(c2)NC(=O)CO3)cc1C` (stereo unspecified): the “activation” value is inactive: -16.1%.
For `CCOc1ccc(-c2cn3c(n2)sc2cc(C(=O)NC4CCCc5ccccc54)ccc23)cc1` (stereo unspecified), the “activation” value is inactive: -12.1%.
With `CSc1nnc2[nH]c(=O)cc(C)n12`, the “activation” value was inactive: -13.3%.
Next, `Cc1cc(-c2ccc(S(=O)(=O)Nc3ccc(Br)c(C)c3)s2)on1`: inactive: -6.81%.
On to `COc1ccc(CNC(=O)C2Cc3cc(S(=O)(=O)N4CCCCCC4)ccc3N2C(C)=O)cc1` (stereo unspecified), for which the “activation” value is inactive: 0.483%.
